Results on eight molecules are retold here after paper PMC9374335, “C11orf94/Frey is a key regulator for male fertility by controlling Izumo1 complex assembly” (Science Advances, 2022).

Numbering of substitutions follows the chain as printed. Names may count otherwise. Results are given in words; binding and its absence hold for the method and conditions named. Binding seen in cells or lysates may run through a third protein. Some entries that bind do so weakly or less than the wild type. For some of these results: Tags and fused reporters may be left off the sequences shown.

Assay [1] deals with T1, SPPL2c-3xFLAG (mouse) (UniProt A2A6C4).
T1 sequence: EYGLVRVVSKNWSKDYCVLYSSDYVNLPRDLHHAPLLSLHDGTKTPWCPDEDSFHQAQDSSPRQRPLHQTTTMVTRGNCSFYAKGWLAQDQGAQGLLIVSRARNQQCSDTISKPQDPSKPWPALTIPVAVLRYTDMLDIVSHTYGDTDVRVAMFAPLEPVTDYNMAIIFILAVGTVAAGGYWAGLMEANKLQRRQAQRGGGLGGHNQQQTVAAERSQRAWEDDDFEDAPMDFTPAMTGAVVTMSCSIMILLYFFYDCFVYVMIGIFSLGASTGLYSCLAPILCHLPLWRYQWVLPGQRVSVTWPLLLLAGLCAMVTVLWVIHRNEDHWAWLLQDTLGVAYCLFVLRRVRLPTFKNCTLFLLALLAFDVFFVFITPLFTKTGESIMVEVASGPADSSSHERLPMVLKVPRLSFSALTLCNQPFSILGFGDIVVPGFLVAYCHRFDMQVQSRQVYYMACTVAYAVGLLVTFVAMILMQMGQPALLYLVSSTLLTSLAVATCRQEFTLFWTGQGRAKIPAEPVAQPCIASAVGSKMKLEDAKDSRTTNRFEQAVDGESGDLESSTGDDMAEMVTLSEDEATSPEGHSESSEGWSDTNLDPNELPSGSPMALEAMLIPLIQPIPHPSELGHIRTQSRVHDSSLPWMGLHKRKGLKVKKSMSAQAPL
The assay can be described thus: co-IP; CHAPSO-solubilized proteins from transfected HeLa cells precipitated with anti-FLAG beads; Western blot. In general terms: Immunoblotting shows a protein as a band on a membrane.

The target of assay [2] is T2, C11orf94 (endogenous, mouse testis) (mouse (endogenous in testis)) (UniProt Q8CF31).
T2 sequence: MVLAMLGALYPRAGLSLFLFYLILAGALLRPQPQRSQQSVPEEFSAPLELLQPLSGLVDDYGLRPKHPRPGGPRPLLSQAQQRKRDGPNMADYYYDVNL
Description: co-IP; C11orf94 precipitated from CHAPSO homogenates of Wt or C11orf94-/- testes with anti-C11orf94 Sepharose; Western blot.

Assay [3] has as its target T3, murine C11orf94 equipped with a C-terminal triple-FLAG tag (mouse), Q8CF31.
T3 chain: T2 sequence
The assay can be described thus: co-IP; CHAPSO-solubilized proteins from transfected HeLa cells precipitated with anti-FLAG beads; Western blot. The settings on record: remark: other sources report otherwise.

Assay [4] addresses T4, Izumo1-3xFLAG (mouse, UniProt Q9D9J7 22-397).
T4 construct: Izumo sperm-egg fusion protein 1, mouse; open reading frame amplified from murine testis cDNA; source: HEK293T, transfected, in lysate (CHAPSO); not shown: 3xFLAG, C-terminal, kept
T4 sequence (looked up): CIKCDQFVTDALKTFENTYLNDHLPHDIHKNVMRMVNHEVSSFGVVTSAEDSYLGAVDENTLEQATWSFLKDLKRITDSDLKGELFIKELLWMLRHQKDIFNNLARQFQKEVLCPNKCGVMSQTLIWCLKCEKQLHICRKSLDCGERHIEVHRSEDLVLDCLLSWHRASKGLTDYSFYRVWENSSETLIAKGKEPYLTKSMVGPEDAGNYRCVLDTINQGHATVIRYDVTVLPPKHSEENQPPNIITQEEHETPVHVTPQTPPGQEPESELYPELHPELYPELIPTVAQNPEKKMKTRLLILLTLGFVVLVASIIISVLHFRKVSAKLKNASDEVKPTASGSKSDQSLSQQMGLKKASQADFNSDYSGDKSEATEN
Description: co-IP; CHAPSO lysates of transfected HEK293T cells; 3xFLAG-tagged bait precipitated with anti-FLAG beads; with or without coexpressed C11orf94-3xmyc; Western blot.

The target in assay [5] is T5, murine C11orf94 equipped with a C-terminal triple-FLAG tag (mouse) (UniProt Q8CF31).
T5 sequence: T2 sequence
Described as above.

For assay [6], the target named is T1, SPPL2c-3xFLAG (mouse). The description is as above.
For assay [7], the target named is T6, Izumo1 (endogenous, mouse testis and sperm) (mouse (endogenous in testis and sperm)) (UniProt Q9D9J7).
T6 sequence: T4 sequence (looked up)
The assay can be described thus: co-IP; Izumo1 precipitated from CHAPSO lysates of noncapacitated sperm cells of Wt or C11orf94-deficient mice with anti-Izumo1 coupled to agarose (Pierce Direct IP kit); Western blot.

Assay [8] concerns the target T5, murine C11orf94 equipped with a C-terminal triple-FLAG tag (mouse). The assay can be described thus: co-IP; transfected HEK cells; lysis with 1% Triton X-100; C11orf94-3xFLAG pulled down with anti-FLAG and protein G agarose beads; Western blot.
For assay [9], the target named is T7, SPPL2c (endogenous, mouse testis) (mouse (endogenous in testis)) (UniProt A2A6C4).
T7 sequence: T1 sequence
The assay can be described thus: co-IP; testes from wild-type or Sppl2c-/- mice lysed in 0.5% CHAPSO; SPPL2c precipitated with a specific antibody and protein G agarose; Western blot.

B1: Izumo1-myc (protein, UniProt Q9D9J7 22-397)
chain: T4 sequence (looked up)
Take B1: the binding result in assay [1] was “binds”.

B2: Izumo1 (endogenous, mouse testis and sperm) (protein, UniProt Q9D9J7 22-397)
chain: T4 sequence (looked up)
Take B2: the binding result in assay [2] is reported as “binds weakly”.

B3: Izumo1-HA, Q9D9J7 22-397 (protein)
chain: T4 sequence (looked up)
For B3, the binding result in assay [3] is reported as “binds”.

B4: murine ACE3 equipped with a C-terminal HA-tag (natural protein, mouse, UniProt D0G895 24-737, looked up)
chain: VGETSLNDFYSEAQAKLFLQFYEQTAQVVLNEFMEATWNYVTNITKQNQKNMLQKEADRSQFMLYFSTRARMFRTDHFLNQDVKRMLRKLQNIDKSALPTEDLLEYNRLLTYMETAYNRAEVCLDEGPCLTLEPDLQEIMATSRDQKELLWAWQGWRDAVGRQLRPVFEDYVRLSNKAAQYNGYKDMGALWRSKYESDTLEEDLEQLYKELQPLYLNLHAYVRRSLYRYYGPELIDLRGPIPAHLLGNMWAQSWNNILDLVLPYPTKAPEDITAIMKIQHWRPEKMFEEANLFFTSMGMLPAPPAFWIKSMMEKPADGREVECHTSSWNFYKFNDFRVKKCTEVTLEDLLSVFHQMGHIQYFLQYQNLSVIYQEGASPAFEEAVGSVIALSVSSHKYLLARGLLSQPHQDSEEEVNFLLGIALEKIAFIPFSYLVDKFRWKIFDGTISKITYNQEWWNFRLKYQGLCPPVPRSDDDFDPGAKFHIPANVPYIRYFLGLILQFQLHEALCEASGHVGPLHQCDNYNSKVAGKILGDLLKLGSSRPWREVLQEVTGESNISTKAFLTYFKPLMDWLVTENVKQGDTLGWPDFSCSFEEKITSKVSFLGTDTEPEQAYLGQWVLLSMSFFMLVLILALGFRLHYLEKQLLDEDTMILKTLPYSYFLGIAMEPHQAARKQWLLLGLCCILMLCCIGLLIRIVTQNTENTPWMKNEGQS
notes: Angiotensin-converting enzyme 3 (ACE3), mouse; open reading frame amplified from murine testis cDNA; also called ACE3-HA; angiotensin-converting enzyme 3; source: HEK293T, transiently transfected, in lysate (CHAPSO); not shown: HA, C-terminal, kept
As for B4, the binding result in [4] is “binds”; in assay [5], “no binding”; in [6] it was “binds”.

B5: ACE3 (endogenous, mouse sperm) (protein, UniProt D0G895 24-737)
chain: B4 chain
On to B5, for which the binding entry in assay [7] was “binds weakly”.

B6: mSPPL2c-myc (enzyme, UniProt A2A6C4 29-690)
chain: T1 sequence
As for B6, the binding entry in [8] is reported as “binds”.

B7: SPPL2c F455L (enzyme, UniProt A2A6C4 29-690)
chain: T1 sequence with F427L
As for B7, the binding entry in [8] is reported as “binds”.

B8: C11orf94 (endogenous, mouse testis) (protein, UniProt Q8CF31 1-99)
chain: T2 sequence
Turning to B8, the binding entry in assay [9] is on record as “binds”.
